Experimental data: article PMC4336329 (PLoS ONE, 2015)
Screen size: about 310,000 compounds; about 14,000 (4.5%) showed an effect of 50% or more. The effect is printed as a negative number. This is one part of the list.

target: human ether-à-go-go-related gene (hERG) potassium channel (human, UniProt Q12809); test: primary screen, population patch clamp on CHO cells stably expressing hERG
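Also: peak tail current of the secondary pulse compared with the same well before compound.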

human ether-à-go-go-related gene (hERG) potassium channel, sequence (Q12809 whole entry, looked up): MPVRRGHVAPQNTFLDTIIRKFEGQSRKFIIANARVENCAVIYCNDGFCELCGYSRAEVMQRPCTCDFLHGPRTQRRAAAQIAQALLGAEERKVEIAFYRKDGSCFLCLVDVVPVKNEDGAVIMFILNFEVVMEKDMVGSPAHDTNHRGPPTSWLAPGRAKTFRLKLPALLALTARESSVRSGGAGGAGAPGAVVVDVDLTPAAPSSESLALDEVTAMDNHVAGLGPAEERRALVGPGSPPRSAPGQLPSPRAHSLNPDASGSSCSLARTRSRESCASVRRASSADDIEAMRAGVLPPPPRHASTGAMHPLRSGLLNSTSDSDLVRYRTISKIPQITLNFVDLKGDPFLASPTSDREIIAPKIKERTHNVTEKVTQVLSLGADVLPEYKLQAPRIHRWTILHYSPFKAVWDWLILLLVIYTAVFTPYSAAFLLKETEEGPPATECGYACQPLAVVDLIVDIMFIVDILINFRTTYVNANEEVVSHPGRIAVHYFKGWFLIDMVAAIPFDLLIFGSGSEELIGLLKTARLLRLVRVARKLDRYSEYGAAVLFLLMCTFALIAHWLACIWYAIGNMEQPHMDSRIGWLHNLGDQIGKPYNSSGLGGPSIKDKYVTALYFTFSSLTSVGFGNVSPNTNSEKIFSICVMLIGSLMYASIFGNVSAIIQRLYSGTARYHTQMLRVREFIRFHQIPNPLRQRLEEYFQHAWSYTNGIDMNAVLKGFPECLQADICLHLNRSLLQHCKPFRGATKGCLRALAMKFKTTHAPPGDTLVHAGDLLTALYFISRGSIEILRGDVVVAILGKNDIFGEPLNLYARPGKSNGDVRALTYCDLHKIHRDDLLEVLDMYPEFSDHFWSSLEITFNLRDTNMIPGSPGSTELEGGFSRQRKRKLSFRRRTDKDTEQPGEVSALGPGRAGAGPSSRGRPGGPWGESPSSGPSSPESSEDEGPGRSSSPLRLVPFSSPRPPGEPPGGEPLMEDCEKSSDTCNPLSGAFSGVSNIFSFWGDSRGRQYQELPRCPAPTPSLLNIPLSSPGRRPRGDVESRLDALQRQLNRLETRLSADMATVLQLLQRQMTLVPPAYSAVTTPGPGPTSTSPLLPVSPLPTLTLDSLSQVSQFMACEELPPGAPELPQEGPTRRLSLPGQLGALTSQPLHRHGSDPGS

Row | SMILES | hERG current change (%, negative = inhibition) at 10uM [%]
1 | O=C(CSc1nc2ccccc2s1)c1ccc(O)cc1O | 13.4
2 | O=C(CN1CCN(S(=O)(=O)c2ccc(Cl)cc2)CC1)NCc1cccs1 | -59.1
3 | CCCCNC(=O)CCn1c(=O)c2ccccc2n(CC(=O)NCCc2ccc(OC)c(OC)c2)c1=O | -11.3
4 | Cc1cc(-c2nc3cccnc3s2)ccc1NS(=O)(=O)c1cccs1 | 5.53
5 | CCCCOc1ccc(NC(=O)Cn2c(=O)ccc3c(C)cc(C)nc32)cc1 | 9.08
6 | Cc1ccc(S(=O)(=O)N2CC(C(=O)O)Oc3ccccc32)cc1 (stereo not shown) | 9.17
7 | COc1ccccc1NC(=O)c1ccc(S(=O)(=O)N2CCCC2)cc1 | -20.3
8 | COc1ccc(NC(=S)NCc2cccn2C)cc1 | 3.27
9 | Cc1ccc(C(=O)N/C(=C\c2ccccc2)C(=O)OCc2ccccc2)cc1 | -50.7
10 | Cc1cc(C(=O)Nc2ccc(C(=O)O)cc2)c(C)o1 | 23.9
11 | CC(C#Cc1c([C@@H](C)Oc2ccccc2)nnn1Cc1ccccc1)Oc1ccccc1 (stereo partly shown) | 6.98
12 | Cc1nc2ccccc2nc1OCc1cccc(Cl)c1 | -12
13 | CCn1c(SCC(=O)NCc2cccs2)nnc1-c1ccco1 | 7.51
14 | Cc1c(Cl)cccc1NC(=O)CS(=O)(=O)c1ccccc1 | 13.6
15 | COc1ccc2nc(SCC(=O)Nc3ccc4c(c3)OCCO4)[nH]c2c1 | -19.5
16 | CCO[C@H]1OC(C(=O)N2CCN(Cc3ccc4c(c3)OCO4)CC2)=C[C@@H](c2ccc(Br)cc2)[C@@H]1CCCO | -20.1
17 | O=C(NCCC1CCCCN1S(=O)(=O)c1ccc(F)cc1)C(=O)NC1CCCC1 (stereo not shown) | -49.7
18 | O=C(c1ccc2c(c1)OCO2)C1CCCN(C(=O)NCc2ccccc2)C1 (stereo not shown) | -14.3
19 | CCc1ccccc1NC(=O)c1ccc([N+](=O)[O-])s1 | -8.62
20 | COc1ccc(-c2[nH]ncc2CNCc2cc(C)n(C)n2)c(F)c1 | 10.9
21 | CC1(C)NC(=O)N(CC(O)CN2C(=O)CCC2=O)C1=O (stereo not shown) | -7.16
22 | O=C(C(=O)N1CCN(Cc2ccc3c(c2)OCO3)CC1)c1c[nH]c2ccccc12 | -11.6

Row | SMILES | hERG current change (%, negative = inhibition) at 10uM [%]
23 | CC(C)(C)c1cc(CCC(=O)NCc2cccnc2)cc(C(C)(C)C)c1O | -1.67
24 | CS(=O)(=O)N(CC(=O)NC1CCCCCC1)Cc1ccc(Cl)cc1 | 0.169
25 | S=c1nc(Cc2ccc(Cl)cc2)[nH]c2ccccc12 | 25.6
26 | C/C(N)=C(/C#N)C(=O)CSc1nc2cc(Cl)ccc2c(=O)n1-c1ccc(C)cc1 | 18.1
27 | Clc1ccccc1CNc1ncnc2nc[nH]c12 | 0.586
28 | O=C(CCS(=O)(=O)c1ccccc1)NC1CCCCC1 | 28
29 | Cn1c(O)c(/C=N/N2CCOCC2)c(=O)[nH]c1=S | 18.1
30 | CCC1Oc2ccc(C)cc2N(CC(=O)N(Cc2cccnc2)Cc2cccc(F)c2)C1=O (stereo not shown) | 4.55
31 | On1cnnc1-c1ccccc1 | 8.89
32 | COc1ccc(C)cc1N(C(=O)c1ccco1)C(C(=O)NC1CCCC1)c1cc(OC)c(OC)c(OC)c1 (stereo not shown) | 1.92
33 | COc1ccccc1OCCSc1nc2ccccc2n1CCO | 12.3
34 | CCOc1ccc(N2CC(C(=O)Nc3cccc(C)c3C)CC2=O)cc1 (stereo not shown) | 5.18
35 | Cc1ccc(S(=O)(=O)N2CCC(C(=O)OCC(=O)N3CCc4ccccc43)CC2)cc1 | -25.4
36 | CCCCn1c(/N=C/c2ccccc2NS(=O)(=O)c2ccc(C)cc2)nc2ccccc21 | -19
37 | COC(=O)C1=C(c2c(C)noc2C)C[C@@H]2CC[C@H]1N2C(=O)NCc1ccc2c(c1)OCO2 | -13.8
38 | COC(=O)c1cccc(C(=O)N2CCC(CCC(=O)NCc3ccc(F)cc3)CC2)c1 | -30.6
39 | COc1ccc(CCNC(=O)C2CCN(S(=O)(=O)c3cnc[nH]3)CC2)cc1OC | 13.7
40 | Cc1cc(/C=N/O)c(C)n1-c1cccc(Cl)c1 | -7.5
41 | CC(C)C(=O)N1CCN(c2ccc(NC(=O)COc3ccccc3[N+](=O)[O-])cc2)CC1 | 2.38
42 | COc1ccc2c(c1)OC(O)(C(F)(F)C(F)F)CC2=O (stereo not shown) | -6.12
43 | COc1ccc(-c2nc3ccc(N4CCCC4)cc3c(=O)[nH]2)cc1OC | 8.32
44 | COc1ccc(NC(=O)Nc2nnc(-c3ccccc3F)s2)cc1 | 31.2

Row | SMILES | hERG current change (%, negative = inhibition) at 10uM [%]
45 | O=C(O)c1cccc(-c2noc(-c3cccc(Cl)c3)n2)c1 | 13.1
46 | S=C(NCCc1c[nH]c2ccccc12)NC1CC1 | 24.6
47 | Cc1[nH]c2c([N+](=O)[O-])cccc2c1C | -7.54
48 | Cc1ccc(OCC(=O)Nc2ccc3oc(=O)ccc3c2)cc1C | 11.1
49 | COc1ccc(CN2C(=O)c3ccccc3C2=O)cc1 | 9.28
50 | CCCc1cc(N2CCOCC2)n2nc(C)c(-c3ccccc3)c2n1 | 13.3
51 | CCCCNC(=O)/C(C#N)=C/c1ccc(-c2ccc(S(=O)(=O)N3CCOCC3)cc2)o1 | 14.6
52 | COc1ccc(C(=O)c2c3ccccc3[n+]([O-])n2CCC[NH3+])cc1.O=C([O-])C(F)(F)F | -28.9
53 | CC1CCC(NC(=O)c2ccc(NC3=NC4CS(=O)(=O)CC4S3)cc2)CC1 (stereo not shown) | 1.92
54 | O=C(CN1C(=O)c2ccccc2C1=O)NNC1=NS(=O)(=O)c2ccccc21 | 7.58
55 | C=CCn1c(SCC(=O)c2cccs2)nnc1-c1cccc(OC)c1 | -14.9
56 | COc1ccc(Nc2c3c(nc4ccccc24)CCCC3)cc1OC | -73.2
57 | CCOC(=O)N/N=C\c1ccc(OC(=O)c2ccc3c(c2)OCO3)cc1 | -0.337
58 | O=C(Nn1c(O)c(C=C2N=c3ccccc3=N2)sc1=S)c1ccccc1 | 22.3
59 | COc1ccc(C(=O)OCCOc2ccccc2C(C)=O)c(O)c1 | 22.7
60 | COC(=O)c1cc(C)sc1NC(=O)c1ccco1 | 15
61 | Cc1ccc(S(=O)(=O)N(C)Cc2nc(-c3ccc(Br)cc3)no2)cc1 | 4.12
62 | O=C(CCl)Nc1cn(-c2ccccc2)nc1-c1ccc(F)cc1 | -7.91
63 | COc1ccc2oc(C(=O)Nc3nnc(C)s3)c(C)c2c1 | 4.69
64 | COc1ccc(OC)c(S(=O)(=O)N2CCN(c3ccccc3OC)CC2)c1 | -10.7
65 | N#CC1CC(c2ccccc2)Nc2cc(Cl)ccc2N1 (stereo not shown) | 5.89
66 | NC(=O)CC(NC(=O)c1ccccc1)c1ccc(NCc2ccc(F)cc2)c([N+](=O)[O-])c1 (stereo not shown) | -48

Row | SMILES | hERG current change (%, negative = inhibition) at 10uM [%]
67 | Cc1ccc(Nc2nc(NCCCN3CCOCC3)nc(N)c2[N+](=O)[O-])cc1C | -5.15
68 | Cc1ccc2c(c1)n([O-])c1c([n+]2=O)CCCC1 | 4.28
69 | Nc1ncnc(NCc2ccccc2)c1[N+](=O)[O-] | 0.645
70 | O=C(Nc1ccc(Cl)cc1Cl)N1CCN(c2ncccn2)CC1 | -21.1
71 | CCCCSCCCNC(=O)C1CCC(CNS(=O)(=O)c2ccc(NC(C)=O)cc2)CC1 (stereo not shown) | 17.4
72 | CCCCCCOc1ccc(C(CC(=O)NC)C(=O)O)cc1 (stereo not shown) | 18.7
73 | COC(=O)c1ccc(C2Nc3ccc(/C(C)=N/NC(=O)C(OC)c4ccccc4)cc3C3C=CCC32)cc1 (stereo not shown) | -76.2
74 | O=C(Nc1ccc(N2CCOCC2)c(Cl)c1)c1c(F)c(F)c(F)c(F)c1F | -39
75 | CCOC(=O)C1CCN(S(=O)(=O)c2ccc3c(c2)NC(=O)CS3)CC1 | -22.4
76 | O=C1N(CN2CCN(c3cccc(Cl)c3)CC2)c2ccccc2C12OCCCO2 | -0.924
77 | Cc1cc(C(F)(F)F)nn1CC(=O)Nc1cccnc1 | 13.3
78 | CCC1(C)Cc2ccccc2C(Nc2c(C)n(C)n(-c3ccccc3)c2=O)=N1 (stereo not shown) | 6
79 | COc1ccc(C(=O)CSC2=C(C#N)C3(CCCCC3)C(C#N)=C(N)N2)cc1 | -5.36
80 | COC(=O)CCC(=O)NC(=S)Nc1cc(Cl)ccc1Cl | 10.5
81 | COc1ccc(C(=O)C2CCCN(Cc3ccc4nonc4c3)C2)cc1OC (stereo not shown) | -67.4
82 | COc1ccccc1NS(=O)(=O)c1cc2c(cc1C)NC(=O)CO2 | -7.43
83 | CCOC(=O)C1=C(COC(=O)Cc2ccc(Cl)cc2)NC(=O)NC1C (stereo not shown) | -32.7
84 | O=C(/C=C/c1ccc([N+](=O)[O-])cc1)NCCc1ccc(F)cc1 | -60.3
85 | CCn1c(CSc2nnc(-c3ccncc3)n2CCOC)nc2cc(C(=O)O)ccc21 | 4.99
86 | C1=C(CCNc2ncnc3c2cnn3-c2ccccc2)CCCC1 | 8.79
87 | CC1CCN(C(=O)c2[nH]cnc2C(=O)N2CCN(C(=O)OC(C)(C)C)CC2)CC1 | 19
88 | Cc1ccc(NC(=O)c2ccc3ccccc3n2)cc1S(=O)(=O)N1CCOCC1 | 12.9
